According to a compilation of properties of binary mixtures (doi:10.1039/b704843b):
The densities may have been worked out from excess volumes.

Assay: xn = mol fraction of the nth substance listed
Conditions: 101 kPa

O + CCCC[n+]1ccn(C)c1.F[P-](F)(F)(F)(F)F
x1 = 1
Conditions | mass density [kg/m3]
298.15 K | 997.5
308.15 K | 994.3
313.15 K | 992.6

CCCC[n+]1ccn(C)c1.F[P-](F)(F)(F)(F)F + O
mass density [kg/m3]
Conditions | 298.15 K | 303.15 K | 308.15 K | 313.15 K | 318.15 K
x1 = 0.0003 | 998.6 | 996.9 | 995.3 | 993.6 | 992
x1 = 0.0006 | 1000.3 | 998.5 | 996.8 | 995.1 | 993.4
x1 = 0.001 | 1002.6 | 1000.7 | 999 | 997.2 | 995.5
x1 = 0.0013 | – | 1004.2 | 1002.4 | 1000.5 | 998.8
